#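 Method: 48-hour compound exposure of cells in 96-well plates, five concentrations, linear interpolation of endpoints. At the TGI there is no net growth.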
# Key:
# Test in all cases: NCI tumour cell line growth inhibition, 48 h
# UO-31 renal = tested on: UO-31 renal
# RXF-631 renal = tested on: RXF-631 renal
# BT-549 breast = tested on: BT-549 breast
# DLD-1 colon = tested on: DLD-1 colon
# MCF7 breast = tested on: MCF7 breast
# ACHN renal = tested on: ACHN renal
# SF-539 CNS = tested on: SF-539 CNS
# A549 NSCLC = tested on: A549 NSCLC
# HL-60(TB) leukemia = tested on: HL-60(TB) leukemia
# SK-MEL-2 melanoma = tested on: SK-MEL-2 melanoma
# U251 CNS = tested on: U251 CNS
# M19-MEL melanoma = tested on: M19-MEL melanoma
# DU-145 prostate = tested on: DU-145 prostate
# 786-0 renal = tested on: 786-0 renal
# SN12C renal = tested on: SN12C renal
# TK-10 renal = tested on: TK-10 renal
# HS 578T breast = tested on: HS 578T breast
# PC-3 prostate = tested on: PC-3 prostate
# UACC-62 melanoma = tested on: UACC-62 melanoma
# NCI-H226 lung = tested on: NCI-H226 lung
# CAKI-1 renal = tested on: CAKI-1 renal
# IGROV1 ovarian = tested on: IGROV1 ovarian
# M14 melanoma = tested on: M14 melanoma
# SK-MEL-5 melanoma = tested on: SK-MEL-5 melanoma
# KM12 colon = tested on: KM12 colon
# LOX IMVI melanoma = tested on: LOX IMVI melanoma
# MDA-N = tested on: MDA-N
# OVCAR-5 ovarian = tested on: OVCAR-5 ovarian
# LXFL 529 NSCLC = tested on: LXFL 529 NSCLC
# T-47D breast = tested on: T-47D breast
# HCT-15 colon = tested on: HCT-15 colon
# SNB-78 CNS = tested on: SNB-78 CNS
# SF-295 CNS = tested on: SF-295 CNS
# SNB-19 CNS = tested on: SNB-19 CNS
# NCI-H460 lung = tested on: NCI-H460 lung
# NCI/ADR-RES ovarian = tested on: NCI/ADR-RES ovarian
# SW-620 colon = tested on: SW-620 colon
# HCC-2998 colon = tested on: HCC-2998 colon
# HOP-18 NSCLC = tested on: HOP-18 NSCLC
# MALME-3M melanoma = tested on: MALME-3M melanoma
# SF-268 CNS = tested on: SF-268 CNS
# UACC-257 melanoma = tested on: UACC-257 melanoma
# NCI-H522 lung = tested on: NCI-H522 lung
# OVCAR-4 ovarian = tested on: OVCAR-4 ovarian
# OVCAR-3 ovarian = tested on: OVCAR-3 ovarian
# MDA-MB-231 breast = tested on: MDA-MB-231 breast
# A498 renal = tested on: A498 renal
# MDA-MB-435 = tested on: MDA-MB-435
# HCT-116 colon = tested on: HCT-116 colon
# HT29 colon = tested on: HT29 colon
# CCRF-CEM leukemia = tested on: CCRF-CEM leukemia
# NCI-H23 lung = tested on: NCI-H23 lung
# RXF 393 renal = tested on: RXF 393 renal
# MOLT-4 leukemia = tested on: MOLT-4 leukemia
# K-562 leukemia = tested on: K-562 leukemia
# HOP-62 NSCLC = tested on: HOP-62 NSCLC
# SNB-75 CNS = tested on: SNB-75 CNS
# DMS 114 small cell lung = tested on: DMS 114 small cell lung
# HOP-92 NSCLC = tested on: HOP-92 NSCLC
# SK-OV-3 ovarian = tested on: SK-OV-3 ovarian
# COLO 205 colon = tested on: COLO 205 colon
# OVCAR-8 ovarian = tested on: OVCAR-8 ovarian
# RPMI-8226 leukemia = tested on: RPMI-8226 leukemia
smiles,measurement,setting,value
COc1cc2c(c(OC)c1OC)-c1ccc(SC)c(=O)cc1[C@@H](N)CC2,TGI,UO-31 renal,95.3 µM
same,TGI,RXF-631 renal,2.24 µM
same,TGI,BT-549 breast,0.0946 µM
same,TGI,DLD-1 colon,> 100 µM
same,TGI,MCF7 breast,> 100 µM
same,TGI,ACHN renal,> 100 µM
same,TGI,SF-539 CNS,0.0287 µM
same,TGI,A549 NSCLC,> 100 µM
same,TGI,HL-60(TB) leukemia,0.148 µM
same,TGI,SK-MEL-2 melanoma,4.64 µM
same,TGI,U251 CNS,> 100 µM
same,TGI,M19-MEL melanoma,> 100 µM
same,TGI,DU-145 prostate,> 100 µM
same,TGI,786-0 renal,> 100 µM
same,TGI,SN12C renal,> 100 µM
same,TGI,TK-10 renal,89.7 µM
same,TGI,HS 578T breast,2.94 µM
same,TGI,PC-3 prostate,> 100 µM
same,TGI,UACC-62 melanoma,> 100 µM
same,TGI,NCI-H226 lung,16.1 µM
same,TGI,CAKI-1 renal,14.4 µM
same,TGI,IGROV1 ovarian,> 100 µM
same,TGI,M14 melanoma,13.3 µM
same,TGI,SK-MEL-5 melanoma,0.0522 µM
same,TGI,KM12 colon,0.871 µM
same,TGI,LOX IMVI melanoma,> 100 µM
same,TGI,MDA-N,0.0512 µM
same,TGI,OVCAR-5 ovarian,> 100 µM
same,TGI,LXFL 529 NSCLC,> 100 µM
same,TGI,T-47D breast,> 100 µM
same,TGI,HCT-15 colon,15.6 µM
same,TGI,SNB-78 CNS,> 100 µM
same,TGI,SF-295 CNS,1.59 µM
same,TGI,SNB-19 CNS,> 100 µM
same,TGI,NCI-H460 lung,> 100 µM
same,TGI,NCI/ADR-RES ovarian,0.215 µM
same,TGI,SW-620 colon,> 100 µM
same,TGI,HCC-2998 colon,2.55 µM
same,TGI,HOP-18 NSCLC,> 100 µM
same,TGI,MALME-3M melanoma,> 100 µM
same,TGI,SF-268 CNS,> 100 µM
same,TGI,UACC-257 melanoma,> 100 µM
same,TGI,NCI-H522 lung,0.0498 µM
same,TGI,OVCAR-4 ovarian,> 100 µM
same,TGI,OVCAR-3 ovarian,0.0517 µM
same,TGI,MDA-MB-231 breast,> 100 µM
same,TGI,A498 renal,0.384 µM
same,TGI,MDA-MB-435,0.0158 µM
same,TGI,HCT-116 colon,10.9 µM
same,TGI,HT29 colon,0.397 µM
same,TGI,CCRF-CEM leukemia,> 100 µM
same,TGI,NCI-H23 lung,9.62 µM
same,TGI,RXF 393 renal,26.3 µM
same,TGI,MOLT-4 leukemia,48.3 µM
same,TGI,K-562 leukemia,> 100 µM
same,TGI,HOP-62 NSCLC,> 100 µM
same,TGI,SNB-75 CNS,> 100 µM
same,TGI,DMS 114 small cell lung,0.012 µM
same,TGI,HOP-92 NSCLC,1.03 µM
same,TGI,SK-OV-3 ovarian,1.65 µM
same,TGI,COLO 205 colon,0.0206 µM
same,TGI,OVCAR-8 ovarian,6.93 µM
same,TGI,RPMI-8226 leukemia,> 100 µM
